Test results taken from PMC5309803.
No constants are given. Whether binding was seen depends on the method and setting. In cells and extracts the contact can be indirect. Some entries that bind do so weakly or less than the wild type. Tags and fused reporters may be left off the sequences shown.

Legend:
Experiment in all cases: co-IP; lysate of co-transfected HEK293 cells; IP with mouse anti-GFP (clones 7.1 and 13.1) on Dynabeads Protein G overnight at 4 °C in IP buffer (50 mM Tris 7.4, 150 mM NaCl, 1 mM EDTA, 0.5% sodium deoxycholate, 1% NP40); western blot with anti-Myc (9E10)
[1] = molecular target: T1, GFP-tagged PIH1D3 p.Trp89* (human) (UniProt Q9NQM4)
T1 sequence: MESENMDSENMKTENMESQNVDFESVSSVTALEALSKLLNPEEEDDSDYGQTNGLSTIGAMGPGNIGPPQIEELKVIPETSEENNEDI

[2] = molecular target: T2, GFP-tagged PIH1D3, normal full-length protein (human) (UniProt Q9NQM4)
T2 sequence: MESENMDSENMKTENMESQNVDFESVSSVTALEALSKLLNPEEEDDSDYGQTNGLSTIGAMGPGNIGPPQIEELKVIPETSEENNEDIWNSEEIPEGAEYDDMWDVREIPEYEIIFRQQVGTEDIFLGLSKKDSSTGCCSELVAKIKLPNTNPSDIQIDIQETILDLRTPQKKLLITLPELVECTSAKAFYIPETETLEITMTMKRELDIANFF

[3] = molecular target: T3, GFP-tagged PIH1D3 p.Glu43* (human) (UniProt Q9NQM4)
T3 sequence: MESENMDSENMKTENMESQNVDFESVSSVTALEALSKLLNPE

[4] = molecular target: T4, GFP-tagged PIH1D3 p.Asp133Tyr (human) (UniProt Q9NQM4)
T4 sequence: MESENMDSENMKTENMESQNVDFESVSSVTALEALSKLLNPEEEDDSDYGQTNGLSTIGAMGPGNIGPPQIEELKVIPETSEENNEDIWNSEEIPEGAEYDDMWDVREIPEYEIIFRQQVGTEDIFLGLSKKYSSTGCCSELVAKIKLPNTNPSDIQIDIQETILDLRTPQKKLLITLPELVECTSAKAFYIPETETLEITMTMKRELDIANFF

GFP-tagged DNAI2 (human) = molecular target: T5, GFP-tagged DNAI2 (human) (UniProt Q9GZS0)
T5 sequence: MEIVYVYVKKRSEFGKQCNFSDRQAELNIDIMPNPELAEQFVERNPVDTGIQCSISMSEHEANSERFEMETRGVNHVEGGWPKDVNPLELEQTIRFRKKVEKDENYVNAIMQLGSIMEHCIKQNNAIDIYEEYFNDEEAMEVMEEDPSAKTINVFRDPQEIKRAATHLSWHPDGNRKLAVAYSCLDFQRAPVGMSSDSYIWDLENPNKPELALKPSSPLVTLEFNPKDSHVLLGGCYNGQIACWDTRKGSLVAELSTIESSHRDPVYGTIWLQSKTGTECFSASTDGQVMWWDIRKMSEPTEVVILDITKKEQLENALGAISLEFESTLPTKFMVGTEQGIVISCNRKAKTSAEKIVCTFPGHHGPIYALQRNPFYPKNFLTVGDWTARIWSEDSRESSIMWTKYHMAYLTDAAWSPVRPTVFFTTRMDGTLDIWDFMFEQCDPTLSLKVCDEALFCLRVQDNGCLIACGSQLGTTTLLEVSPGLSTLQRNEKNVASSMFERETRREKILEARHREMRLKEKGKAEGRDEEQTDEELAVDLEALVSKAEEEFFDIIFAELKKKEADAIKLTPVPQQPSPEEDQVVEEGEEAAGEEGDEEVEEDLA

B1: Myc-tagged DNAI2 (protein, UniProt Q9GZS0-1 1-605)
chain: MEIVYVYVKKRSEFGKQCNFSDRQAELNIDIMPNPELAEQFVERNPVDTGIQCSISMSEHEANSERFEMETRGVNHVEGGWPKDVNPLELEQTIRFRKKVEKDENYVNAIMQLGSIMEHCIKQNNAIDIYEEYFNDEEAMEVMEEDPSAKTINVFRDPQEIKRAATHLSWHPDGNRKLAVAYSCLDFQRAPVGMSSDSYIWDLENPNKPELALKPSSPLVTLEFNPKDSHVLLGGCYNGQIACWDTRKGSLVAELSTIESSHRDPVYGTIWLQSKTGTECFSASTDGQVMWWDIRKMSEPTEVVILDITKKEQLENALGAISLEFESTLPTKFMVGTEQGIVISCNRKAKTSAEKIVCTFPGHHGPIYALQRNPFYPKNFLTVGDWTARIWSEDSRESSIMWTKYHMAYLTDAAWSPVRPTVFFTTRMDGTLDIWDFMFEQCDPTLSLKVCDEALFCLRVQDNGCLIACGSQLGTTTLLEVSPGLSTLQRNEKNVASSMFERETRREKILEARHREMRLKEKGKAEGRDEEQTDEELAVDLEALVSKAEEEFFDIIFAELKKKEADAIKLTPVPQQPSPEEDQVVEEGEEAAGEEGDEEVEEDLA
binding [1]: no binding | binding [2]: binds | binding [3]: no binding | binding [4]: no binding

B2: Myc-tagged wild-type PIH1D3 (protein, UniProt Q9NQM4 1-214)
chain: MESENMDSENMKTENMESQNVDFESVSSVTALEALSKLLNPEEEDDSDYGQTNGLSTIGAMGPGNIGPPQIEELKVIPETSEENNEDIWNSEEIPEGAEYDDMWDVREIPEYEIIFRQQVGTEDIFLGLSKKDSSTGCCSELVAKIKLPNTNPSDIQIDIQETILDLRTPQKKLLITLPELVECTSAKAFYIPETETLEITMTMKRELDIANFF
binding (GFP-tagged DNAI2 (human)): binds
